# Data published in publication PMC9911399, “Two distinct binding modes provide the RNA-binding protein RbFox with extraordinary sequence specificity”.
# Positions count from the first letter of the chain named. Some of the results follow.
# T1: RBFOX1 RRM (Homo sapiens, UniProt Q9NWB1 109-208)
# T1 sequence: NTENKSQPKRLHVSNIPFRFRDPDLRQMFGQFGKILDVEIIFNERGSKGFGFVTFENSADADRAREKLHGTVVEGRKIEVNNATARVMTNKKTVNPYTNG
# B1: GAGUAUG (DNA:RNA)
# RNA: GGGAGACCGGAAUUCAGAUUGUCCGAGUAUGUUAAAUCCCGUCGUAGCCACCA
# DNA 1: CAATCTGAATTCCGGTCTCCC
# DNA 2: TGGTGGCTACGACGGGATT
# B2: AUGGAGU (DNA:RNA)
# RNA: B1 RNA with G25A, A26U, U28G, U30G, G31U
# DNA 1: CAATCTGAATTCCGGTCTCCC
# DNA 2: TGGTGGCTACGACGGGATT
# B3: UAUCAUC (DNA:RNA)
# RNA: B1 RNA with G25U, G27U, U28C, G31C
# DNA 1: CAATCTGAATTCCGGTCTCCC
# DNA 2: TGGTGGCTACGACGGGATT
# B4: UCGAUAU (DNA:RNA)
# RNA: B1 RNA with G25U, A26C, U28A, A29U, U30A, G31U
# DNA 1: CAATCTGAATTCCGGTCTCCC
# DNA 2: TGGTGGCTACGACGGGATT
# B5: GGGAGAG (DNA:RNA)
# RNA: B1 RNA with A26G, U28A, A29G, U30A
# DNA 1: CAATCTGAATTCCGGTCTCCC
# DNA 2: TGGTGGCTACGACGGGATT
# B6: GAGCAUG (DNA:RNA)
# RNA: B1 RNA with U28C
# DNA 1: CAATCTGAATTCCGGTCTCCC
# DNA 2: TGGTGGCTACGACGGGATT
# B7: GUUCCCA (DNA:RNA)
# RNA: B1 RNA with A26U, G27U, U28C, A29C, U30C, G31A
# DNA 1: CAATCTGAATTCCGGTCTCCC
# DNA 2: TGGTGGCTACGACGGGATT
# B8: ACUAUCG (DNA:RNA)
# RNA: B1 RNA with G25A, A26C, G27U, U28A, A29U, U30C
# DNA 1: CAATCTGAATTCCGGTCTCCC
# DNA 2: TGGTGGCTACGACGGGATT
# B9: CGCGACU (DNA:RNA)
# RNA: B1 RNA with G25C, A26G, G27C, U28G, U30C, G31U
# DNA 1: CAATCTGAATTCCGGTCTCCC
# DNA 2: TGGTGGCTACGACGGGATT
# B10: CCGCUCA (DNA:RNA)
# RNA: B1 RNA with G25C, A26C, U28C, A29U, U30C, G31A
# DNA 1: CAATCTGAATTCCGGTCTCCC
# DNA 2: TGGTGGCTACGACGGGATT
# B11: CAUGGAU (DNA:RNA)
# RNA: B1 RNA with G25C, G27U, U28G, A29G, U30A, G31U
# DNA 1: CAATCTGAATTCCGGTCTCCC
# DNA 2: TGGTGGCTACGACGGGATT
# B12: GCAACGA (DNA:RNA)
# RNA: B1 RNA with A26C, G27A, U28A, A29C, U30G, G31A
# DNA 1: CAATCTGAATTCCGGTCTCCC
# DNA 2: TGGTGGCTACGACGGGATT
# B13: UUCGGCA (DNA:RNA)
# RNA: GGGAGACCGGAAUUCAGAUUGUCCUUCGGCAUUAAAUCCCGUCGUAGCCACCA
# DNA 1: CAATCTGAATTCCGGTCTCCC
# DNA 2: TGGTGGCTACGACGGGATT
# B14: UCCAAAC (DNA:RNA)
# RNA: B13 RNA with U26C, G28A, G29A, C30A, A31C
# DNA 1: CAATCTGAATTCCGGTCTCCC
# DNA 2: TGGTGGCTACGACGGGATT
# B15: CAAUUCU (DNA:RNA)
# RNA: B1 RNA with G25C, G27A, A29U, U30C, G31U
# DNA 1: CAATCTGAATTCCGGTCTCCC
# DNA 2: TGGTGGCTACGACGGGATT
# B16: GACCUAC (DNA:RNA)
# RNA: B1 RNA with G27C, U28C, A29U, U30A, G31C
# DNA 1: CAATCTGAATTCCGGTCTCCC
# DNA 2: TGGTGGCTACGACGGGATT
# B17: UUACGUA (DNA:RNA)
# RNA: B13 RNA with C27A, G28C, C30U
# DNA 1: CAATCTGAATTCCGGTCTCCC
# DNA 2: TGGTGGCTACGACGGGATT
# B18: UGUGCUU (DNA:RNA)
# RNA: B13 RNA with U26G, C27U, G29C, C30U, A31U
# DNA 1: CAATCTGAATTCCGGTCTCCC
# DNA 2: TGGTGGCTACGACGGGATT
# B19: UCGGUCU (DNA:RNA)
# RNA: B13 RNA with U26C, C27G, G29U, A31U
# DNA 1: CAATCTGAATTCCGGTCTCCC
# DNA 2: TGGTGGCTACGACGGGATT
# B20: GAAGGGA (DNA:RNA)
# RNA: B13 RNA with U25G, U26A, C27A, C30G
# DNA 1: CAATCTGAATTCCGGTCTCCC
# DNA 2: TGGTGGCTACGACGGGATT
# B21: CAGGUGU (DNA:RNA)
# RNA: B1 RNA with G25C, U28G, A29U, U30G, G31U
# DNA 1: CAATCTGAATTCCGGTCTCCC
# DNA 2: TGGTGGCTACGACGGGATT
# B22: AAACUUC (DNA:RNA)
# RNA: B1 RNA with G25A, G27A, U28C, A29U, G31C
# DNA 1: CAATCTGAATTCCGGTCTCCC
# DNA 2: TGGTGGCTACGACGGGATT
# B23: CCGGGCU (DNA:RNA)
# RNA: B13 RNA with U25C, U26C, C27G, A31U
# DNA 1: CAATCTGAATTCCGGTCTCCC
# DNA 2: TGGTGGCTACGACGGGATT
# B24: UGAGAUG (DNA:RNA)
# RNA: B1 RNA with G25U, A26G, G27A, U28G
# DNA 1: CAATCTGAATTCCGGTCTCCC
# DNA 2: TGGTGGCTACGACGGGATT
# B25: GCGAUUG (DNA:RNA)
# RNA: B1 RNA with A26C, U28A, A29U
# DNA 1: CAATCTGAATTCCGGTCTCCC
# DNA 2: TGGTGGCTACGACGGGATT
# B26: ACCUUCC (DNA:RNA)
# RNA: B13 RNA with U25A, U26C, G28U, G29U, A31C
# DNA 1: CAATCTGAATTCCGGTCTCCC
# DNA 2: TGGTGGCTACGACGGGATT
# B27: UAAACUC (DNA:RNA)
# RNA: B1 RNA with G25U, G27A, U28A, A29C, G31C
# DNA 1: CAATCTGAATTCCGGTCTCCC
# DNA 2: TGGTGGCTACGACGGGATT
# B28: CAGGCCA (DNA:RNA)
# RNA: B13 RNA with U25C, U26A, C27G, G29C
# DNA 1: CAATCTGAATTCCGGTCTCCC
# DNA 2: TGGTGGCTACGACGGGATT
# B29: CAUUGCG (DNA:RNA)
# RNA: B1 RNA with G25C, G27U, A29G, U30C
# DNA 1: CAATCTGAATTCCGGTCTCCC
# DNA 2: TGGTGGCTACGACGGGATT
# B30: UGAGAAA (DNA:RNA)
# RNA: B13 RNA with U26G, C27A, G29A, C30A
# DNA 1: CAATCTGAATTCCGGTCTCCC
# DNA 2: TGGTGGCTACGACGGGATT
# B31: GUUGCAC (DNA:RNA)
# RNA: B13 RNA with U25G, C27U, G29C, C30A, A31C
# DNA 1: CAATCTGAATTCCGGTCTCCC
# DNA 2: TGGTGGCTACGACGGGATT
# Target: T1, RBFOX1 RRM
# Assay: EMSA; HiTS-Eq, 1 nM pool, 10 min; buffer printed only for the single-RNA assays: 10 mM Tris pH 7.5, 150 mM NaCl, 3.4 mM EDTA, 0.001% NP-40, 30 C
# Settings: tags: His6 N-terminal (pET28a); label: 5' 32P
# Method in brief: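 Purified wild-type or mutant RbFox RRM at increasing concentrations was equilibrated with 1 nM of 5′-radiolabelled RNA carrying 7 randomized nucleotides for 10 min in 50 µL. Unbound RNA was separated by 8% native PAGE and sequenced. Relative association constants came from read-count changes of each RNA species compared with the control reaction, normalised to the cognate motif.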
row,Binder,binding signal
1,B1,0.0168 KA relative to UGCAUGU
2,B2,0.0115 KA relative to UGCAUGU
3,B3,0.00384 KA relative to UGCAUGU
4,B4,0.00435 KA relative to UGCAUGU
5,B5,0.0224 KA relative to UGCAUGU
6,B6,0.713 KA relative to UGCAUGU
7,B7,0.00648 KA relative to UGCAUGU
8,B8,0.00647 KA relative to UGCAUGU
9,B9,0.012 KA relative to UGCAUGU
10,B10,0.00712 KA relative to UGCAUGU
11,B11,0.00795 KA relative to UGCAUGU
12,B12,0.0118 KA relative to UGCAUGU
13,B13,0.0185 KA relative to UGCAUGU
14,B14,0.000218 KA relative to UGCAUGU
15,B15,0.00154 KA relative to UGCAUGU
16,B16,0.00371 KA relative to UGCAUGU

row,Binder,binding signal
1,B17,0.00786 KA relative to UGCAUGU
2,B18,0.0181 KA relative to UGCAUGU
3,B19,0.0172 KA relative to UGCAUGU
4,B20,0.00631 KA relative to UGCAUGU
5,B21,0.0168 KA relative to UGCAUGU
6,B22,0.00194 KA relative to UGCAUGU
7,B23,0.00883 KA relative to UGCAUGU
8,B24,0.0273 KA relative to UGCAUGU
9,B25,0.0164 KA relative to UGCAUGU
10,B26,0.00208 KA relative to UGCAUGU
11,B27,0.00452 KA relative to UGCAUGU
12,B28,0.00956 KA relative to UGCAUGU
13,B29,0.0103 KA relative to UGCAUGU
14,B30,0.016 KA relative to UGCAUGU
15,B31,0.0203 KA relative to UGCAUGU
